Reference: PubChem BioAssay AID686978 (National Center for Advancing Translational Sciences (NCATS), 2013)
Values joined by “and” are separate entries in the source; they are usually repeats but may differ in a detail not shown here. Equal entries are not always repeated. Out of some 420,000 compounds screened, about 64,000 (15%) were called active. This list was built around the results that the source calls inconclusive (neither active nor inactive); the mix of calls is not that of the screen. The call rests on the fitted dose curve; in most records, active means well fitted inhibition curve with a large enough effect; inconclusive means small, poorly fitted or top-dose-only effect; inactive means flat fitted curve, though single readings scatter. Potencies of inconclusive entries are doubtful fits and often do not repeat.
On the % scale 0 is the no-effect control and ±100 the full control effect; potency means the concentration at half of the fitted maximal effect; tags describe the fitted curve by direction and shape.

Assay: qHTS for Inhibitors of human tyrosyl-DNA phosphodiesterase 1 (TDP1): qHTS in cells in absence of CPT; further: nearly all actives have a fitted effect of over 55% in size
Conditions: DT40 Tdp1-/- hTDP1 cells, no CPT, ATP luminescence, 48 h; activity change, negative = growth inhibition: at 46.2 µM (top of the series) unless noted
Method in brief: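 DT40 Tdp1-/-;hTDP1 cells, no CPT (DMSO vehicle only), 400 cells/well; compounds pin-transferred; ≥48 hr, 37 °C; CellTiter-Glo 30 min RT dark, luminescence read.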
For `COc1ccc(C(Cl)=C(c2ccc(OC)cc2)c2ccc(OC)cc2)cc1`, the Potency was inconclusive: 20.6 µM [inhibitor, single point] and inconclusive: 29.1 µM [inhibitor, single point] and inconclusive: 21.1 µM [inhibitor, single point].
In the case of `CCC(C)[C@H](NC(=O)N1CCn2c1nc1ccccc12)C(=O)NCC1CCCO1` (stereo not given in full), the “activity change, negative = growth inhibition” value is reported as inactive: 14.1%.
With `CC1Cc2ccccc2N1CC(=O)NCc1ccc2c(c1)OCO2` (stereo not given) the Potency was inconclusive: 25.9 µM [inhibitor, single point].
With `COc1ccc(NC(=O)c2ccc(NC(=O)c3cccs3)cc2)cc1` the “activity change, negative = growth inhibition” value was inactive: -10.7%.
For `O=C(Oc1c(-c2ccccc2Cl)oc2ccccc2c1=O)c1ccc(Cl)cc1`, the Potency was inconclusive: 20.6 µM [inhibitor, single point].
With `CCCOC(=O)c1cccc(NC(=O)c2cccnc2)c1` the Potency was active: 5.8 µM.
In the case of `O=S(=O)(Nc1ccc(C(O)(C(F)(F)F)C(F)(F)F)cc1)c1cccc2cccnc12`, the Potency is reported as active: 23.1 µM.
In the case of `NC(=O)c1ccc(NC(=O)CN2CCN(Cc3ccccc3)CC2)cc1`, the “activity change, negative = growth inhibition” value is reported as inactive: 2.53%.
In the case of `COCCOC(=O)c1[nH]c2c(c1C)C(=O)CC(c1cc(OC)c(OC)c(OC)c1)C2` (stereo not given), the Potency is reported as active: 2.91 µM.
For `Cc1cccc(Cn2c(NCC(C)O)nc3c2c(=O)n(C)c(=O)n3C)c1` (stereo not given), the Potency was active: 10.3 µM.
In the case of `CC(=O)Oc1ccc2c(c1)CC[C@@H]1[C@@H]2CC[C@]2(C)[C@@H](O)CC[C@@H]12`, the Potency is reported as inconclusive: 18.8 µM [inhibitor, single point].
For `O=C(Nc1nc(-c2ccc(Cl)s2)cs1)c1ccco1`, the Potency was inconclusive: 23.1 µM [inhibitor, partial curve].
With `C[C@@H]1CCCCO[C@@H](CN(C)C(=O)CCCN(C)C)[C@@H](C)CN([C@H](C)CO)C(=O)c2cc(NC(=O)CCC(F)(F)F)ccc2O1` the “activity change, negative = growth inhibition” value was inactive: -24.2%.
With `COc1ccc(Br)c(C(=O)OCC(=O)NC2CCCCCCC2)c1` the Potency was inconclusive: 29.1 µM [inhibitor, single point].
With `CC(=O)NC1C(OCc2ccccc2)OC2COC(c3ccccc3)OC2C1OCC(=O)O` (stereo not given) the Potency was inconclusive: 23.1 µM [inhibitor, partial curve].
With `COc1ccccc1C(=O)Nc1c(C(=O)Nc2ccc(C)cc2)oc2ccccc12` the Potency was inconclusive: 29.1 µM [inhibitor, single point].
With `COC(=O)c1ccc(COc2ccccc2/C=N/NC(=O)c2cccnc2)cc1` the Potency was inconclusive: 23.1 µM [inhibitor, single point].
For `N#Cc1c(NC(=O)C2CC(c3ccccc3O)=NO2)sc2c1CCC2` (stereo not given), the Potency was inconclusive: 4.61 µM [inhibitor, full curve].
In the case of `Cc1ccc2cc(CN(Cc3cccs3)Cc3nnnn3CC3CCCO3)c(=O)[nH]c2c1` (stereo not given), the Potency is reported as inconclusive: 23.1 µM [inhibitor, single point].
With `O=C(CN1CCOCC1)n1c2ccccc2c2ccccc21` the Potency was inconclusive: 23.1 µM [inhibitor, single point].
For `COc1cc(C(C(=O)NC2CCCC2)N(C(=O)Cc2cccs2)C2CC2)cc(OC)c1OC` (stereo not given), the activity change, negative = growth inhibition was inconclusive: -32.5% [inhibitor].
For `N#C/C(=C\c1cccnc1)C(=O)Nc1ccc(SC(F)F)cc1`, the activity change, negative = growth inhibition was inconclusive: -32.1% [inhibitor].
In the case of `O=C(COc1ccccc1Br)N1CCN(C(=O)c2cccs2)CC1`, the Potency is reported as inconclusive: 25.9 µM [inhibitor, single point].
In the case of `CC(C)C[C@H](NC(=O)NCCc1ccc(Cl)cc1)C(=O)O`, the “activity change, negative = growth inhibition” value is reported as inactive: 3.73%.
For `CCN(C(=O)/C=C/c1ccc(OC)cc1)C1CCCCC1`, the Potency was inconclusive: 13 µM [inhibitor, partial curve].
In the case of `COCC(=O)N(Cc1nc2ccccc2c(=O)[nH]1)Cc1cccs1`, the Potency is reported as inconclusive: 29.1 µM [inhibitor, single point].
With `COc1ccc(NC(=O)C2CCCN2S(=O)(=O)c2ccc3c(c2)CCCC(=O)N3)cc1Cl` (stereo not given) the Potency was inconclusive: 23.1 µM [inhibitor, single point].
In the case of `Fc1cccc2sc(Nc3nc4ccccc4s3)nc12`, the Potency is reported as active: 11.6 µM.
In the case of `COCCN(C(=O)COC(=O)C1CC(=O)N(c2ccc(C)cc2)C1)c1c(N)n(Cc2ccccc2)c(=O)[nH]c1=O` (stereo not given), the “activity change, negative = growth inhibition” value is reported as inactive: -2.17%.
For `O=C1CCCc2cc3c(ccc4ccccc43)cc21`, the Potency was inconclusive: 29.1 µM [inhibitor, single point].
With `CC(=O)n1cc([C@H]2C=C(C(=O)Nc3ccccc3)O[C@@H](OCCCCO)C2)c2ccccc21` the Potency was inconclusive: 23.1 µM [inhibitor, single point].
For `Cc1ccccc1OCC(=O)Nc1ccc2nc(SCCOc3ccccc3)sc2c1`, the “activity change, negative = growth inhibition” value was inactive: -6.87%.
For `CCn1c(SC(C)C(=O)Nc2ccc(N3CCOCC3)cc2)nnc1-c1ccco1` (stereo not given), the “activity change, negative = growth inhibition” value was inactive: -4.59%.
With `Cc1ccc2c(C)c(C(=O)N3CCC(C(N)=O)(N4CCCCC4)CC3)oc2c1C` the Potency was active: 20.6 µM.
For `COC(=O)C1=C(C)N(Cc2ccccc2)C(=NCCc2c[nH]c3ccccc23)N[C@H]1c1ccccc1`, the Potency was active: 20.6 µM.
In the case of `COc1ccccc1Nc1ccc([N+](=O)[O-])cn1`, the activity change, negative = growth inhibition is reported as inconclusive: -37.3% [inhibitor].
With `CN1CC[C@@]2(CCCN(S(=O)(=O)c3ccccc3)C2)C1` the “activity change, negative = growth inhibition” value was inactive: -16.8%.
In the case of `Cc1ccc(/C=N/NC(=O)CSc2nc3ccccc3s2)o1`, the “activity change, negative = growth inhibition” value is reported as inactive: -12.7%.
With `Cc1ccc(C)c(NC(=O)C2CCCN2C(=O)NC2CCCCC2)c1` (stereo not given) the “activity change, negative = growth inhibition” value was inactive: 2.57%.
For `Cc1nc(SCC(=O)c2cc(C)n(C3CC3)c2C)c2ccccc2n1`, the Potency was active: 7.31 µM.
In the case of `Cc1ccccc1N(C)S(=O)(=O)c1ccc2[nH]cc(C(=O)NCC3CCCO3)c(=O)c2c1` (stereo not given), the Potency is reported as inconclusive: 29.1 µM [inhibitor, single point].
For `CN(C(=O)CSc1nc2ccc(NC(=O)CCc3ccccc3)cc2s1)c1ccccc1`, the Potency was active: 14.6 µM.
With `N#Cc1ccc(C(=O)OCC(=O)Nc2cccnc2Cl)cc1` the “activity change, negative = growth inhibition” value was inactive: -11.1%.
In the case of `CC(=O)CS(=O)(=O)c1ccc(Oc2ccc(S(=O)(=O)CC(C)=O)cc2)cc1`, the Potency is reported as inconclusive: 14.6 µM [inhibitor, partial curve, poor fit].
In the case of `Cc1ccc(-c2nnc(Nc3ccc(S(N)(=O)=O)cc3)c3ccccc23)cc1S(=O)(=O)N1CCOCC1`, the Potency is reported as inconclusive: 4.11 µM [inhibitor, full curve].
